The values that follow come from publication PMC12040169 (PLOS Biology, 2025).

Some of the results follow.

The test system of this assay is T1, C. trachomatis L2/434/Bu expressing GFP (CTL2-GFP).
T1 construct: L2/434/Bu GFP intracellular growth in HeLa cells
Set-up: species or system HeLa; C. trachomatis total inclusion area by high-content imaging, normalised to DMSO. To be noted: total inclusion area; 28.5 h, 10 µM; inhibitor. In a few lines:
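Host cell viability was gauged from Hoechst-stained nuclei counts, while chlamydial growth was taken from total inclusion area and inclusion number per well. Cells were fixed and imaged by high-content microscopy once bulk GFP and resorufin fluorescence had been measured.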
`COC(=O)c1c(NC(=S)NCCn2cc(Br)cn2)sc2c1CCC(C)C2` (stereo not shown) [CBK266886]: the “% of control remaining” value amounted to 113.25.

`COc1ccc(NC(=O)C2CCCN2c2nc(O)cc(C(F)(F)F)n2)cc1` (stereo not shown) [CBK003704]: the “% of control remaining” value was found to be 91.7351.

In the case of `Cc1ccc(C(=O)NNC(=O)c2ccc([N+](=O)[O-])cc2)cc1` [CBK261793], the “% of control remaining” value came out at 84.6889.

`O=S(=O)(NCCSc1nnnn1-c1ccccc1)c1cccs1` [CBK268013]: the “% of control remaining” value came to 80.1274.

Consider `C[C@@H]1CN(C(=O)OCc2ncc(F)cc2F)C[C@H](C)O1` [CBK200286], for which the “% of control remaining” value is reported as 53.4727.

As to `CCN(CC(=O)N1CCN(c2cc(Cl)ccc2C)CC1)S(=O)(=O)c1ccc2ccccc2c1` [CBK268827], the “% of control remaining” value is reported as 116.414.

Regarding `Cc1noc(C)c1S(=O)(=O)Nc1ccc2cc(Br)cnc2n1` [CBK073893], the “% of control remaining” value is given as 90.5911.

For `Cc1cccc(OCC(=O)Nc2ncn(Cc3cccnc3)n2)c1` [CBK304919], the “% of control remaining” value came to 96.7182.

Regarding `COCCCn1c(=O)[nH]c2ncc(-c3cc(C(C)C)ccc3OC)nc21` [CBK064351], the “% of control remaining” value is 105.826.

As for `COc1cc(C)c(S(=O)(=O)Nc2ccc(CC(=O)O)cc2)cc1C` [CBK299782], the “% of control remaining” value is 91.7223.

For the compound `O=C(O)c1cc(S(=O)(=O)NCc2ccco2)ccc1Cl` [CBK058905], the “% of control remaining” value was 42.6664.

As to `CC(=O)Nc1ccc(NC(=O)CC2SCCNC2=O)cc1` (stereo not shown) [CBK269921], the “% of control remaining” value came out at 94.2839.

On to `O=C(NCCN1CCC(O)(c2cccc(F)c2)CC1)c1cccs1` [CBK282450], for which the “% of control remaining” value is recorded as 73.2385.

As for `CC(=O)Nc1nc(C)c(S(=O)(=O)Nc2nc(C(C)C)ns2)s1` [CBK051227], the “% of control remaining” value was 111.173.

Take `COc1cc2c(cc1CN1CCOCC1CC(=O)O)CCC2` (stereo not shown) [CBK307277]: the “% of control remaining” value stood at 39.6933.

As for `COc1cc(C2C3=C(COC3=O)Nc3[nH]nc(C)c32)ccc1O` (stereo not shown) [CBK288146], the “% of control remaining” value is listed as 93.4697.

For the compound `O=C(O)C1(Cc2ccc(-c3ccccc3)cc2)CCNC1` (stereo not shown) [CBK281687], the “% of control remaining” value was determined as 85.2748.

Consider `O=C(CC1SC(N2CCOCC2)=NC1=O)Nc1cccc(C(=O)O)c1` (stereo not shown) [CBK300498], for which the “% of control remaining” value stood at 88.637.

Regarding `CCC(NC(=O)CCN1Cc2ccccc2C1=O)c1ccc(F)cc1` (stereo not shown) [CBK282657], the “% of control remaining” value came out at 90.0825.

For `Cc1ccc(NC(=O)CC(C(=O)O)N(C)C)cc1` (stereo not shown) [CBK267068], the “% of control remaining” value amounted to 112.18.

Consider `Cc1nc(C)c(CC(=O)N(C)CC2OCCc3ccccc32)s1` (stereo not shown) [CBK281478], for which the “% of control remaining” value is 90.4526.

As to `O=C(CSc1nnnn1CC1CCCO1)N1CC=C(c2ccccc2)CC1` (stereo not shown) [CBK295160], the “% of control remaining” value is on record as 97.3077.

`O=C(Cn1cnc2ccccc2c1=O)NCCc1ccsc1` [CBK287844]: the “% of control remaining” value stood at 69.5272.

Take `COc1ccc(CCNC(=O)c2cnc(-c3ccc(Cl)cc3)c(-c3cccc(CNC(C)=O)c3)c2)cc1OC` [CBK164413]: the “% of control remaining” value turned out to be 81.3271.

Turning to `c1ccc(-c2c(-c3ccccc3)n(Cc3ccco3)c3ncn4nc(-c5cccnc5)nc4c23)cc1` [CBK265374], the “% of control remaining” value is listed as 101.357.

Consider `Cc1c(C(=O)O)ccc2c1N[C@@H](c1ccc(OCC#N)cc1)C1CC=CC21` (stereo partly shown) [CBK287124], for which the “% of control remaining” value stood at 84.2159.

As for `O=C(O)C1CCCN1S(=O)(=O)c1ccc(Cl)cc1` (stereo not shown) [CBK261249], the “% of control remaining” value was 112.475.

Regarding `CCOc1ccc2nc(NC(=N)N)nc(C)c2c1` [CBK010384C], the “% of control remaining” value was 1.198.

Regarding `Cc1sc2nc(Cc3ccccc3)n(C3CCN(C(=O)c4ccco4)CC3)c(=O)c2c1C` [CBK286317], the “% of control remaining” value was 89.685.

On to `Cc1nn(C(C)CC(=O)Nc2ccnn2C(C)C)c(C)c1Cl` (stereo not shown) [CBK281537], for which the “% of control remaining” value is given as 72.8333.

As to `c1ccc(COc2nccnc2-c2cccs2)nc1` [CBK107055], the “% of control remaining” value is on record as 95.7125.

Turning to `NNC(=O)Cn1c(-c2ccccn2)nc2ccccc21` [CBK263489], the “% of control remaining” value turned out to be 105.646.

On to `CC(=O)NC(CC(=O)NCc1cccnc1-n1cncn1)c1ccc(Cl)cc1` (stereo not shown) [CBK298314], for which the “% of control remaining” value worked out at 121.965.

On to `O=C(Nc1cccnc1N1CCNCC1)c1ccoc1` [CBK029417T], for which the “% of control remaining” value came out at 107.195.

Regarding `COC(=O)Cc1nc(NS(=O)(=O)c2ccc(Oc3cccc(Cl)c3C#N)cc2)sc1C` [CBK000744], the “% of control remaining” value is 101.578.

On to `O=C(O)CCCn1c(=O)c2cc3c(=O)n(CCCC(=O)O)c(=O)c3cc2c1=O` [CBK265748], for which the “% of control remaining” value was determined as 111.978.

Consider `CCCCOc1cccc(C(=O)Nc2ccc(-c3nc4ccccc4o3)c(O)c2)c1` [CBK263435], for which the “% of control remaining” value is given as 103.031.

For `OC(CNc1nccnc1-c1ccccc1Cl)COc1ccccc1` (stereo not shown) [CBK037085], the “% of control remaining” value worked out at 104.586.

`O=C(Nc1nccc(N2CCNCC2)n1)c1cccs1` [CBK004305T]: the “% of control remaining” value is on record as 97.1816.

With `O=S(=O)(Cc1ccc(-c2nc(-c3ccncc3)no2)o1)c1ccccc1` [CBK288579], the “% of control remaining” value is recorded as 82.4218.
